Reference: ChEMBL document CHEMBL4888484, “Replenishing the malaria drug discovery pipeline: Screening and hit evaluation of the MMV Hit Generation Library 1 (HGL1) against asexual blood stage Plasmodium falciparum ,using a nano luciferase reporter read-out” (2022)
The campaign covered roughly 150,000 compounds. About 540 (0.36%) showed an effect of 50% or more. This is one part of the list.

System: Plasmodium falciparum
Assay: Primary screen in NF54 nanoGlo assay, in single point, at 2uM, 72h; a lower Z score goes with more inhibition
Format: functional, Erythrocyte
Conditions: timepoint 72 hour

SMILES | % Inhibition | Z score
O=C(Cn1nnc2ccccc21)N1CC[C@H](Oc2cccc3cccnc23)C1 | -9% | 1.81
COc1ccc([C@@H](C)NC(=O)N2CCC3(C2)CC3(F)F)c(OC)c1 (stereo not given in full) | -19% | 2.46
CC(C)c1nccn1CC(=O)N1CCC[C@H]1c1cccs1 | -5% | 0.62
CN(CC1CCCCC1)C(=O)c1cc2ccccc2[nH]1 | -7% | 0.95
CCCc1nc(C(=O)N2CCc3cc(OC)c(OC)cc3C2)cs1 | -18% | 1.68
Cc1c(C(c2ccc(-c3cccc(C(F)(F)F)c3)o2)c2c(C)n(C)n(-c3ccccc3)c2=O)c(=O)n(-c2ccccc2)n1C | -2% | 0.33
CCOCc1ccccc1CNC(=O)N1CCCCCNC(=O)CC1 | -20% | 2.1
CO[C@H]1C[C@@H](O)C12CCN(C(=O)c1c(C)noc1C)CC2 | -13% | 1.17
O=C(NCCc1ccccn1)N1CCn2cncc2C1 | 6% | -0.8
CN(C)C(=O)c1cccc(/C=C/C2CCCCC2)c1 | -7% | 0.9
COc1ccc(OC)c(-c2ccnc3nncn23)c1 | 25% | -2.82
CC(C)(C)c1cnc(C=Cc2ncc(C(=O)O)s2)s1 | 9% | -0.88
NCC(=O)N1CC[C@H](Oc2ccc(Cl)c(Cl)c2)C1 | -4% | 0.51
CCOc1ccc(N2C(=O)c3cc(-c4ccccc4)nn3C[C@@]2(C)C(=O)NCCCOC)cc1 | -4% | 0.67
Cc1cccc(Cn2c(=O)[nH]c3c(-c4ccccn4)nsc3c2=O)c1 | -1% | 0.14
Cc1ccc(NS(=O)(=O)c2cc(-c3c(C)noc3C)ccc2C)c(Br)c1 | -1% | 0.14
CN1C(=O)CCN(C(=O)Cn2cc(C3CC3)cn2)c2ccccc21 | -12% | 1.74
O=C(Cn1cnnn1)NCCCc1ccc(Br)cc1F | 0% | -0.03
Cc1cc(CNC2CCN(c3ccc(N4CCN(C)C4=O)cc3)CC2)[nH]n1 | -10% | 1.23
COc1ccc(Cc2nc(-c3ccc4c(c3)ncn4CCC(=O)N3CCCC3)no2)cc1Cl | -6% | 0.81
CC(C)(C)N(CCS(C)(=O)=O)C(=O)c1cccc(F)c1Cl | 4% | -0.35
O=C(Nc1ccc(Cl)cc1Cl)c1cc(O)n(-c2ccc(Cl)cc2)c(=O)n1 | -7% | 0.79

SMILES | % Inhibition | Z score
Cc1ccc([C@H](C)NC2CCN(Cc3ccco3)CC2)cn1 | -17% | 1.55
CC(C)(CN1CCCC1)CN1CCC[C@](C)(C#N)C1 | -2% | 0.2
CS(=O)(=O)N(CC(=O)NCCc1ccccc1)C1CCCCC1 | -7% | 1.37
C[C@](O)(CCNC(=O)NCC1CCOCC1)c1ccccc1 | -5% | 0.71
COc1cc(C(=O)N2CCOC[C@@H](O)C2)ccn1 | -15% | 3.07
CCC(=O)NCc1nc2c(n1CC)CN(C(=O)c1ccc(C)s1)CC2 | 2% | -0.26
COc1ccc(CN2CCOCCNC(=O)CC2)cc1Cc1c(C)noc1C | 5% | -0.67
COCc1ccc(NC(=O)N2CCC[C@H](c3nc4c(s3)CCCC4)C2)cc1 | 2% | -0.19
Cc1ccc(NC(=O)c2cn(-c3cc(-c4noc(C)n4)ccc3C)nc2C)c(Br)c1 | 7% | -1.26
CN(CCN(C)C1CCCC1)Cc1ccc(N(C)C)nc1 | -9% | 1.54
O=C(CCCc1nc(C2CC2)no1)N1CCCCCc2ccccc21 | -14% | 1.52
O=C(O)C1(Oc2ccc3c(c2)CCC3)CCN(c2ncc(F)cn2)CC1 | 1% | -0.12
C=CCC1(CC=C)CCCN1C(=O)[C@H]1CCC(=O)N(Cc2ccccn2)C1 | -14% | 1.59
Cn1c(C(=O)NC[C@H]2CCCO2)cc(=O)c2ccccc21 | 15% | -1.88
COC(=O)[C@@H](NC(=O)c1coc(Cn2cnc3ccccc32)n1)c1ccccc1 | -14% | 2.58
Cn1c(=O)c2c(ncn2CC(=O)OCc2nnc(-c3ccccc3)o2)n(C)c1=O | -3% | 0.51
Cc1nc2ncccc2cc1C(=O)N1CCN(C)C(=O)C1 | -15% | 2.34
CCc1nn(C)c(CC)c1Cc1nc(C2(c3cccc(OC)c3)CC2)no1 | -13% | 2.26
CC(NC1CCCCNC1=O)c1nccn1C (stereo not given) | 1% | -0.15
CCCCNC(=O)NCCCNc1ccncc1 | -6% | 1
Cc1cc(-c2ccc(=O)[nH]n2)cc(S(=O)(=O)N2CCc3ccccc32)c1C | 5% | -0.87
CCn1cc(CN2CCCC23CCN(c2cccc(C)n2)CC3)c(C)n1 | 11% | -1.46

SMILES | % Inhibition | Z score
NC(=O)C1CCC(NC(=O)N2CC(O)(c3ccc(Cl)cc3)C2)CC1 (stereo not given) | -9% | 0.93
CC(=O)N1N=C(c2ccccc2NC(=O)c2ccc(Cl)cc2Cl)O[C@H]1c1ccc(N(C)C)cc1 | 1% | -0.15
CO[C@@H](c1noc(-c2cnn(C(C)(C)C)c2)n1)c1ccccc1Cl | -1% | 0.19
CCO[C@H]1CN(C)C[C@@H]1n1cnc2c(F)cccc2c1=O | -4% | 0.67
O=S(=O)(c1ccc(F)cc1Cl)N1CCCO1 | -6% | 0.99
Cc1nc(NC(=O)COC2CCCC2)sc1C | 15% | -1.93
O=S(=O)(N[C@@H]1CC=CCC1)c1ccc2c(c1)OCCO2 | -10% | 1.83
Cn1ncc(CN2CCC(CS(C)(=O)=O)CC2)c1C(F)(F)F | 5% | -0.93
CC(C)CNC(=O)CCN(Cc1ccco1)C(=O)c1csc(Nc2ccccc2F)n1 | 4% | -0.78
Cc1cc(=O)c(C(=O)NCCN2CCOCC2)c(CC2CCCC2)n1CCCN1CCCC1=O | 6% | -1.15
OCC1(c2ccccc2)CN(Cc2c(F)cccc2F)C1 | -2% | 0.28
CCc1noc(CN(C)Cc2cnn(-c3ccccc3)n2)n1 | 4% | -0.54
CC(C)(C)n1ncnc1CNC(=O)C(=O)Nc1cccc(Oc2ccc(C#N)cc2)c1 | 5% | -0.97
COc1ccccc1CN1CC[C@H](CO)[C@H](NC(=O)c2ccccc2)C1 | 1% | -0.18
CCOC1CC2(CCN(C(=O)c3ccccc3S(C)(=O)=O)C2)C1 (stereo not given) | -44% | 5.21
COc1cc(C(=O)O)cc(C(=O)NC2CCN(Cc3cccs3)CC2)c1 | -11% | 1.08
CCC1=Nc2ccccc2N=C(NC(=O)c2ccc(F)cc2)[C@H]1c1ccc(OC)c(OC)c1 | -11% | 1.75
Cc1ccc(C(=O)C2CCN(C(=O)[C@H](C)NS(=O)(=O)c3ccc(Cl)cc3)CC2)c(C)c1 | -8% | 0.93
CNC(=O)[C@@H]1C[C@H](NCc2ccccc2F)CN1CC(c1ccccc1)c1ccccc1 | 9% | -1.28
CC(=O)NCC1CCN(c2cc(N)nc(N3CCOCC3)n2)CC1 | -1% | 0.11
Cc1ocnc1-c1noc(C2CCCC(C(N)=O)C2)n1 (stereo not given) | -5% | 0.5
COc1ccc2c(c1)CCc1c-2n[nH]c1-c1ccc(C(=O)NC2Cc3ccccc3C2)cc1 | 12% | -1.59

SMILES | % Inhibition | Z score
N#Cc1c(F)cccc1NCC(=O)NCC1CC1 | 3% | -0.54
c1nc(NCc2cc3n(n2)CCN(C2CCCCC2)C3)c2cc[nH]c2n1 | -2% | 0.47
Cc1ncc(Cn2cc(CCO)cn2)s1 | -7% | 0.84
CCNC(=O)N1CCC(NC(=O)N2CCCC(C)CC2)C1 (stereo not given) | -5% | 0.67
CC(C)C(=O)N1CC(N(Cc2ccccc2)C2CCOCC2)C1 | 3% | -0.51
Cc1ccc([C@@H]2CC(c3cccc(C)c3)=NN2C(=O)CN2CCCC2)cc1 | -2% | 0.31
O=C(NCCOCCn1ccnc1)c1ccncc1F | 1% | -0.21
CCC(C)C(=O)Nc1c(C(=O)OC)n(CC2CCCO2)c2ncc(NCc3ccccc3)cc12 (stereo not given) | -9% | 1
C[C@H](Nc1ncc(Cl)cn1)C1(S(C)(=O)=O)CC1 | -1% | 0.22
CN1CC[C@H](N2CC3(CCC2=O)CCN(C(=O)c2ncccc2O)CC3)C1 | -7% | 0.87
Cc1nsc(C(=O)N2CCCCC2)n1 | -20% | 3.07
CCOc1nnc(CN2CCN(C(=O)OC(C)(C)C)CC23CCCCC3)s1 | -11% | 1.65
COCCC(=O)N1CCC(F)(C(=O)N2CCCC2)CC1 | -9% | 1.13
Cc1oc(-c2ccsc2)nc1CN1CCCC[C@@H]1CCO | 2% | -0.35
CC(C)(C)c1nc(COc2ccc([C@H]3CCOC3)cc2)no1 | -13% | 1.44
Cc1c(Cl)cccc1S(=O)(=O)N1CC(Oc2cc(C)n(C3CC3)c(=O)c2)C1 | -28% | 3.15
CCN1C[C@@H](CN(C)Cc2nc(-c3ccccn3)no2)CC1=O | -9% | 1.36
Cc1nn(-c2ccc(NC(=O)[C@@H]3CCC(=O)N3)cn2)c(C)c1Cl | 40% | -4.47
Cc1cnccc1NCCNc1ncnc(C)c1C | 6% | -0.88
